Data taken from article PMC12390733.
No constants are given. Whether binding was seen depends on the method and setting. In cells and extracts the contact can be indirect. Some entries that bind do so weakly or less than the wild type. Where a sequence is shown, tags or fusion partners need not be part of it.

Biological target: GFP-tagged SARS-CoV-2 nonstructural protein 3 (NSP3) (SARS-CoV-2) (UniProt P0DTD1)
Assay: co-IP

B1: Myc-tagged DNAJC11 (DnaJ homolog subfamily C member 11) (protein, UniProt Q9NVH1 1-559)
chain: MATALSEEELDNEDYYSLLNVRREASSEELKAAYRRLCMLYHPDKHRDPELKSQAERLFNLVHQAYEVLSDPQTRAIYDIYGKRGLEMEGWEVVERRRTPAEIREEFERLQREREERRLQQRTNPKGTISVGVDATDLFDRYDEEYEDVSGSSFPQIEINKMHISQSIEAPLTATDTAILSGSLSTQNGNGGGSINFALRRVTSAKGWGELEFGAGDLQGPLFGLKLFRNLTPRCFVTTNCALQFSSRGIRPGLTTVLARNLDKNTVGYLQWRWGIQSAMNTSIVRDTKTSHFTVALQLGIPHSFALISYQHKFQDDDQTRVKGSLKAGFFGTVVEYGAERKISRHSVLGAAVSVGVPQGVSLKVKLNRASQTYFFPIHLTDQLLPSAMFYATVGPLVVYFAMHRLIIKPYLRAQKEKELEKQRESAATDVLQKKQEAESAVRLMQESVRRIIEAEESRMGLIIVNAWYGKFVNDKSRKSEKVKVIDVTVPLQCLVKDSKLILTEASKAGLPGFYDPCVGEEKNLKVLYQFRGVLHQVMVLDSEALRIPKQSHRIDTDG
Question: For B1, which binding is on record?
Answer: The binding was “binds”.
